# Whole data set: some 110,000 compounds, median “z-score” near -0.1, cut for the highest 2% near 2. Some of the results follow. Active and inactive are the calls of the source.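 Rule for the calls: active = z-score in the third read window above 3 or below -3; inactive = the rest.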 Residues, ends and D or L forms follow the SMILES beside them. *: point of attachment. Boc = CC(C)(C)OC(=O)*
# Biological target: Metabotropic glutamate receptor 8 (Rattus norvegicus) (UniProt P70579)
# Experiment: mGluR8 Gi/Go-coupled signaling modulation – cell-based, rat, thallium flux, HTS, primary screen (AID 488969)
# Settings: HEK293 rat mGluR8, GIRK (G protein-gated inwardly rectifying potassium channel) thallium flux, FluoZin2; at 10 µM; stronger effect = higher value; submaximal glutamate (EC20) added with thallium
# UniProt P70579, sequence (P70579 whole entry, looked up): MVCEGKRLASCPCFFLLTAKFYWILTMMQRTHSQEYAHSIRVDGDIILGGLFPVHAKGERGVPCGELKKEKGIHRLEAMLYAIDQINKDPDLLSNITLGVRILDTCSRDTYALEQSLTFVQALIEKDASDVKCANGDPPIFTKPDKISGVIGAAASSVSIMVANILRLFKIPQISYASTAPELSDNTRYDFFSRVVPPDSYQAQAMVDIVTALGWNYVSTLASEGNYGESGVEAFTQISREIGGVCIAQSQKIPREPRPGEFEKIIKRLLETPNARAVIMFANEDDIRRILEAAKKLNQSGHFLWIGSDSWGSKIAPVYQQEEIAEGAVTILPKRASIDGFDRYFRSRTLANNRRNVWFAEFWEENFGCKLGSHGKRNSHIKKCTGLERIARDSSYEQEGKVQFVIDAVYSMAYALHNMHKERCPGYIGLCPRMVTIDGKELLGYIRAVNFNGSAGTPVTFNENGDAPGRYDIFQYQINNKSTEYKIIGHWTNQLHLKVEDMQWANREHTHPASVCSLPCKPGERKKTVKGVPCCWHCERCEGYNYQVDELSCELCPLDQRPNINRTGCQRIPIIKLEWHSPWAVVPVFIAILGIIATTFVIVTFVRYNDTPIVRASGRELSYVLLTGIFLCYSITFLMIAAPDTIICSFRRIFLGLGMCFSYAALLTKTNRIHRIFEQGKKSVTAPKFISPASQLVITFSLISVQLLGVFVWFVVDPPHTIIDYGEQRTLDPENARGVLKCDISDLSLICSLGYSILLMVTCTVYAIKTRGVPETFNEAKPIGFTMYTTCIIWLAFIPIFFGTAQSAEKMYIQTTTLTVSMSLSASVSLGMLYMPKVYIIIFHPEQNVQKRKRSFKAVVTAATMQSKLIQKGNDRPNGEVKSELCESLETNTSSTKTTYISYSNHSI
row,SMILES,z-score
1,O=C(Nc1cccnc1N1CCOCC1)c1ccco1,-0.607
2,Cc1ccc(NC(=O)c2ccc(OC(=O)COc3ccc(Cl)cc3C)cc2)cc1,-0.069
3,COc1ccc(CCNC(=O)c2nnn(-c3cc(C)cc(C)c3)c2N)cc1OC,-0.00195
4,Cc1ccc(S(=O)(=O)N2CCN(C(=O)c3ccccc3)CC2)cc1,0.422
5,COc1ccccc1Oc1ccc(N/C=C2/CCCC2=O)cc1,-0.122
6,Cc1c(NC2=NC(C)(C)Cc3ccccc32)c(=O)n(-c2ccccc2)n1C,-0.508
7,Cc1ccc(NC(=O)CN2C(=O)S/C(=C\c3cccn3C)C2=O)cc1,-0.234
8,CCOc1ccc(-c2cn3ccccc3n2)cc1[N+](=O)[O-],0.461
9,CCCCOc1ccc(-c2nnn(CC(=O)NCCc3c[nH]c4ccccc34)n2)cc1,-0.168
10,O=C1C2CC=C(Cl)CC2C(=O)N1CNc1ccccn1 (stereo not given),-0.363
11,Cc1ccccc1Nc1nc(N)nc(CSc2ccccc2)n1,-0.372
12,O=C1NC(=S)N/C1=C/c1ccc(Oc2ccc(C(F)(F)F)cc2[N+](=O)[O-])c(Cl)c1,-0.0317
13,CCN(CC)S(=O)(=O)c1csc(C(=O)NCc2ccccc2)c1,2.45
14,CC(NC(=O)c1ccc(F)cc1)c1ccc2c(c1)CCCC2 (stereo not given),-0.223
15,CC(C)(C)c1[nH]nc2c1C(c1ccoc1)C(C#N)=C(N)O2 (stereo not given),-0.293
16,Cc1cc(C)c2oc(C(=O)Nc3ccc(S(=O)(=O)N4CCC(C)CC4)cc3)cc(=O)c2c1,-0.0673
17,Cc1cccc(NC(=O)c2ccc(COc3cccc4ccccc34)o2)n1,-0.36
18,CC(NC(=O)C(NC(=O)C1CCCN1C(=O)OC(C)(C)C)C(C)C)C(N)=O (stereo not drawn) (Boc-Pro-Val-Ala-NH2; configuration not given here),-0.296
19,CCc1ccc(C2=NNC(=Nc3cccc(S(=O)(=O)N(C)C)c3)SC2)cc1,-0.497
20,Cc1cccc(N=CC=C2OC(C)(C)C(C)(C)O2)c1,0.595
21,COCCN1CCn2c(nc3cc(NC(=O)c4cccs4)ccc32)C1,-0.0383
22,Cc1c([N+](=O)[O-])c(C(=O)Nc2ccc3c(c2)OCCO3)nn1C,-0.0669

row,SMILES,z-score
1,Cn1cccc1Cc1nnc(SCC(=O)N2CCN(c3ccccc3)CC2)n1-c1ccc(F)cc1,-0.223
2,COc1ccc(-c2noc(-c3ccc(Cl)cc3[N+](=O)[O-])n2)cc1OC,-0.0457
3,CCn1c(C2CC(=O)N(Cc3ccccc3)C2)nc2ccccc21 (stereo not given),-0.349
4,Nc1nc2ccc(N3CCOCC3)cc2s1,0.397
5,Cc1ccc(NC(=O)N(Cc2nc3ccccc3c(=O)[nH]2)Cc2cccs2)cc1,-0.425
6,Cc1ccc(C)c(S(=O)(=O)N2CCN(CC(=O)N3CCc4ccccc4C3)CC2)c1,-0.11
7,COc1ccc(Cl)cc1N(CC(=O)NC(C(C)C)C(C)C)S(C)(=O)=O,-0.0442
8,CC(=O)c1sc(NC(=O)c2c(F)cccc2F)nc1C,-0.0333
9,Cc1ccc(-c2csc(N/N=C/c3ccco3)n2)c(C)c1,-0.0506
10,O=C(C1=C(O)C(=O)N(CC2CCCO2)C1c1cccnc1)c1ccco1 (stereo not given),0.0361
11,N#CC1=C2SCN(Cc3ccco3)CN2C(=O)CC1c1ccc(Cl)cc1 (stereo not given),-0.156
12,CCc1nnc(NC(=O)C2CCCN2S(=O)(=O)c2ccccc2)s1 (stereo not given),0.215
13,O=C(O)C1C2C=CC3(CN(C4CCCC4)C(=O)C13)O2 (stereo not given),2.75
14,CN(C#N)c1nc(Cl)nc(Nc2cccc(Cl)c2)n1,-0.113
15,CCOC(=O)c1cc(-c2ccc(C)cc2)nc2nc(SC)[nH]c(=O)c12,-0.0101
16,O=C(c1ccco1)N1CCN(C(=O)C2CCN(S(=O)(=O)c3cccc4nsnc34)CC2)CC1,0.0379
17,O=C(CSc1nnc(CCc2ccccc2)n1-c1ccc(Cl)cc1)NCc1ccccc1,-0.443
18,COc1ccc(OCC(=O)OC(C)CN2CCOCC2)cc1 (stereo not given),0.0532
19,CSCc1nnc(NC(=O)c2ccc(S(=O)(=O)N(CC(C)C)CC(C)C)cc2)o1,0.161
20,O=C(/C=N/O)Nc1ccc(F)cc1,-0.147
21,COCCn1c(=NC(=O)c2ccccc2[N+](=O)[O-])sc2cc(S(C)(=O)=O)ccc21,0.721
22,O=C(CSc1nnc(Cc2ccccc2)o1)N1CCc2ccccc21,-0.0762

row,SMILES,z-score
1,O=S(=O)(Nc1nccs1)c1ccc(Nc2nnc(-c3ccccc3)c3ccccc23)cc1,-0.249
2,COc1ccc(C(=O)NNC(=S)NC2CCCCC2)cc1OC,0.0284
3,COc1ccc(-c2cc(C(=O)OCC(=O)N3CCCC3)c3ccccc3n2)cc1,-0.231
4,CCn1cc(C2N3CC4(C)CN2CC(C)(C3)C4=O)c2ccccc21 (stereo not given),-0.609
5,N#CC1(C#N)COC23CCCCC2C1(C#N)C(=N)O3 (stereo not given),1.44
6,CCCC(=O)N1CC2(C)CN(C(=O)CCC)CC(CCC)(C1)C2=O,0.692
7,CC1=CC(C)(C(Cl)Cl)C(C)=CC1=O (stereo not given),-0.108
8,CC(C)NC(=O)/C(C#N)=C/c1cccc(NC(=O)c2ccccc2Cl)c1,-0.586
9,CCOC(=O)c1cccc(NC(=O)CSc2nc3cccnc3n2C)c1,-1.56
10,CCc1nc(SCC(=O)c2cccc([N+](=O)[O-])c2)n[nH]1,-0.282
11,c1ccc(N2N=C(c3cccs3)CC2c2ccco2)cc1 (stereo not given),-0.731
12,O=[N+]([O-])c1ccc2c(c1)C=C1CCCCC1(N1CCCC1)O2 (stereo not given),-0.299
13,COc1ccccc1NC(=O)c1ccc(NC(=O)COC(=O)C(C)C)cc1,0.278
14,Cc1nn(-c2ccc(Cl)c(Cl)c2)c(=O)c2ccccc12,-0.111
15,CC(=O)[C@H]1[C@H](c2cccc(Cl)c2)C(C#N)(C#N)[C@@H]2c3ccccc3C=CN21,-0.272
16,CCNc1cc2oc(=O)c(CN3CCOCC3)c(C)c2cc1C,-0.829
17,O=C1CC(N2CCN(c3ccc(Cl)c(Cl)c3)CC2)C(=O)N1 (stereo not given),-0.2
18,CC(NC(=O)COC(=O)/C(=C/c1cccs1)c1cccs1)c1ccccc1 (stereo not given),-0.487
19,CCOc1ccc(NC(=O)CC2C(=O)N(C)C(=S)N2CCCc2ccccc2)cc1 (stereo not given),0.36
20,COc1ccc(N2CC(C(=O)Nc3ccc(F)cc3F)CC2=O)cc1 (stereo not given),-0.323
21,CC1CCCCN1Cc1nc2ccccc2c(=O)[nH]1 (stereo not given),-2.72e-06
22,O=C(Cn1c(S(=O)(=O)Cc2ccccc2)nc2ccccc21)N1CCCCC1,0.0305

row,SMILES,z-score
1,Cc1cc(NC(=O)c2ccc(S(=O)(=O)N(C)C)cc2)n(-c2ccccn2)n1,-0.307
2,Cc1ccc(Cn2c(Sc3nnc(C)s3)nc3c2c(=O)[nH]c(=O)n3C)cc1,0.0732
3,CCn1c2ccccc2c2cc(N)ccc21,-0.216
4,COc1ccccc1NC(=O)N1CCN(c2ccccc2F)CC1,-0.567
5,CCOC(=O)N1CCc2c(sc3nc(SC(C)C)n(N)c(=O)c23)C1,-0.443
6,COC(=O)c1c(NC(=S)Nc2ccc(F)cc2[N+](=O)[O-])sc2c1CCCCC2,1.71
7,COc1cc(C2NCC(c3ccc(Cl)cc3Cl)c3c2[nH]c2ccccc32)cc(OC)c1OC (stereo not given),-0.245
8,CC(N)c1ccc(Cl)cc1Cl (stereo not given),-0.44
9,Cc1ccc2nc(SCc3nnc(-c4ccccc4Br)o3)[nH]c2c1,-0.71
10,COC(=O)c1cc(=O)n(Cc2ccco2)c(=Nc2ccc(F)c(Cl)c2)s1,-0.152
11,CSc1ccccc1C(=O)Nc1nccs1,-0.134
12,NC(=O)c1ccc(C2SCC(=O)N2Cc2ccccc2)cc1 (stereo not given),0.316
13,S=C1NCCc2ccccc2C1c1ccccc1Cl (stereo not given),0.368
14,CCOC(=O)c1ccc(N2C(=O)c3n[nH]c(-c4ccco4)c3C2c2ccc([N+](=O)[O-])cc2)cc1 (stereo not given),-0.206
15,N#Cc1ccccc1CSc1nc(O)cc(=O)[nH]1,0.066
16,Cc1ccc(N=Cc2ccc(N(C)C)cc2)cc1,0.0838
17,N#C/C(=C(/O)CN1CCN(c2ccccc2F)CC1)c1nc(-c2ccc(Cl)cc2)cs1,-0.261
18,Cc1ccc(C(=O)C2=C(O)C(=O)N(CCN3CCOCC3)C2c2ccccn2)o1 (stereo not given),0.226
19,CCn1cc(CNC(=O)c2cccc([N+](=O)[O-])c2)cn1,-0.0089
20,CCOP(=O)(OCC)c1nc(-c2ccc(C)cc2)oc1N1CCOCC1,0.0269
21,Cc1ccccc1CSc1nnc(C)n1N,0.346
22,CC(C)(C)CC(C)(C)Nc1c(-c2ccc(O)cc2)nc2cnccn12,0.017

row,SMILES,z-score
1,COc1ccc(NC(=O)CCCC(=O)OCC(F)(F)C(F)F)cc1,0.139
2,CC(=O)NC1(C(F)(F)F)N=C2SCCN2C1=O (stereo not given),0.258
3,CS/C(=N\S(=O)(=O)c1cccs1)Nc1ccc(F)c(Cl)c1,1.29
4,Cc1ccnc(NC(=S)NC(=O)c2cccs2)c1,active: 7.29
5,CCOc1ccc(C2c3c(oc4cc(C)c(C)cc4c3=O)C(=O)N2CCCN2CCOCC2)cc1 (stereo not given),0.778
6,CCSc1ccccc1C(=O)Nc1nncs1,-0.23
7,CCCOC(=O)c1ccc(S(N)(=O)=O)o1,-0.222
8,CCn1c(SCC(=O)Nc2cccc(F)c2)nnc1-c1cc2cc(Br)ccc2o1,-0.256
9,CCOC(=O)c1sc(NC(=O)CCCCCN2C(=O)c3cccc4cccc(c34)C2=O)nc1C,-0.127
10,CSc1n[nH]c(NC(C)=O)n1,0.059
11,COc1ccc(C2=C(SC)CC2=NC(C)(C)C)cc1,-1.36
12,CC1=NN(c2ccc(C)c(C)c2)C(=O)C1C(c1cccc(O)c1)C1C(=O)N(c2ccc(C)c(C)c2)N=C1C (stereo not given),0.0893
13,CC(C)(C)NC(=O)C(c1ccccc1)N(Cc1cccs1)C(=O)c1csnn1 (stereo not given),0.292
14,Cc1ccc2nsnc2c1S(=O)(=O)N1CCN(CCc2ccccc2)CC1,0.537
15,CS(=O)(=O)N1CCCC(C(=O)NCc2ccco2)C1 (stereo not given),-0.219
16,COc1ccc(Cl)cc1N1Cc2ccccc2C1,-0.134
17,COc1ccc(C(=O)N[C@H](C(=O)NCC2CCCCC2)C(C)C)cc1,-0.0328
18,CC/C(=N\O)c1ccc(OC)c(OC)c1,-0.0836
19,CCN1CCN(CC(=O)Nc2cccc(C)c2)C(=O)C1=O,0.32
20,CC(=O)N1N=C(c2ccc3nccnc3c2)CC1c1ccccc1 (stereo not given),-0.161
21,CC(=O)c1c(C)[nH]c(C(=O)NC2=NCCS2)c1C,-0.158
22,CCN(CC)CCN1C(=O)C(O)=C(C(=O)c2ccc(C)o2)C1c1ccccn1 (stereo not given),-0.0148
